Source: the RNAGym collection of RNA variant scans (doi:10.1093/nar/gkz1192)
The source gives no read counts; variants with many changes may rest on few reads.

B1: CPEB3 Ribozyme (parent)
chain: UAACAGGGGGCCACAGCAGAAGCGUUCACGUCGCAGCCCCUGUCAGAUUCUGGUGAAUCUGCGAAUUCUGCUGUAUAUCUC

Variants of: B1
Experiment: self-cleavage, relative activity (ratio to wild type); higher = more cleavage; in vitro, sequencing
Method in brief: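 Libraries of CPEB3 self-cleaving ribozyme mutants came from rounds of error-prone PCR and carried barcodes, which DNA sequencing matched to variants. In vitro transcription used T7 RNA polymerase at 37°C for 5 hours, with a further 15 min in DNase I before EDTA stopped the reaction; the ribozymes cleaved during both steps. The RNA was reverse transcribed with template switching and sequenced on Illumina. Relative activity is the cleaved/total read fraction of a variant divided by that of the unmutated ribozyme, averaged over three batches with at least 5 reads.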

Variant	self-cleavage
A3U G46A A65U	0.24
A3G U48C A56U U60C C62G	0.23
C4A U51C U69A A75G	0.75
A3U U49C A57G U67C	0.57
A3G G16C A28G U41A U43A U49C	0.11
A3U A13U C38A	0.33
C4A C11G U49C A56G	0.5
C4U A28G A35G U80A	1.18
A3G U60C A77G	0.48
A3G U26C U41A U74A	0.67
A3G U66C A75G	0.3
C4U A5U U26A U31C C39A G46A	0.12
A3G U26A C32U	0.14
A3G U54C U66C	0.29
C4G U69A U78C	1.05
A3G U26C A28G U41C	0.4
A3G U41A U49C U69A	0.2
A3G G16C G53A	0.47
C4G U69A U72C U76C	0.52
A3U G9U G33A A56U	0.07
A3G U43A A56G	0.98

Variant	self-cleavage
C4A U43C U51G	1.07
A3G U54A U60C A64U	0.32
A3U A5U A20G A45U U67C U78C	0.41
A3G G10C A64U	0.38
A3U G8A U25C A28G	0.09
A3U A18G U51A U60C	0.22
A3U A47G C59U U74A	1.06
A3U U54C U67C	0.43
A3G U41G A45U U54C A57C U72C U78C	0.25
A3U A15C A35U U67A	0.21
C4G U41C U69A C71U U78C	0.34
C4G A5U A57U	0.71
C4U C34U U54A	0.63
A3U A47G G61A U66C U74C	0.29
A3G U26A C50G A57G	0.39
A3G U25C U72C	0.25
A3G U41C A64G U69A U78C	0.34
A3U A28G U49A A64G U72A	0.17
A3G U26G A35G C38A A47G	0.26
A3G U25C C29A	0.53
A3U C11U U69A U78C U80A	0.21

Variant	self-cleavage
A3G G24C A45G U51A	0.18
C4U A57G U74C	0.88
A3U U25C A47G	0.32
A3G G33A C37U	0.41
A3G U26C U43C U80C	0.27
A3U A20U U25C U41A A57U C59A U69C	0.07
C4A C23A G46C	0.12
C4A U41C U49C U78C	0.76
A3U U54C U69A	0.7
A3G U31A A64G U78A	0.37
A3G G33A U69A	0.07
A3U U26C A35U U43A U78A	0.44
C4A A5U A18U A56G C62U	0.28
A3U U31A U41A U54C U80C	0.21
A3G U26A G30A U58C U78C	0.09
A3U C17U U49C	0.27
A3U U26C C39A C44G	0.11
A3G G33A U54G A57G U60C U69C	0.09
A3G U25G U43C	0.08
A3U C12U U25C A35U A57U	0.11
A3U A28G U72A	0.64

Variant	self-cleavage
A3G U26C C40U A47G A56U	0.13
A3U G8U U51A U74C A75U	0.09
A3G U41A U54A U60C	0.17
A3U G7A U25A	0.45
A3U A13G C14A U54A U60C A64G	0.21
A3G U48C U67A	0.35
A3G G36A U49G A56U U80A	0.16
A3G U51G U72C	1.21
A3U G8U A13U G30A U31C U67C A75G	0.04
A3G G24A A28U A56U A64G U78C	0.07
A3U A15U A45U U69A	0.13
A3U U26C U41A	0.11
C4U A35U U41A U60C U72C	0.14
C4A U51C U58C	0.58
C4A A13G A35G U43C U51A U54C A65U	0.06
A3U C27A U31A U51C	0.11
C4U A45G U72G	1.03
A3U U43C G55A	0.45
A3G G33A G36A U58A U60C U74C	0.09
C4A C11U U43C A64G	0.13
